Assay results taken from PubChem BioAssay AID1346428 (National Center for Advancing Translational Sciences (NCATS), 2018).
Among all 48,000 compounds or so, about 1,200 (2.5%) were called active. About 2% were inconclusive and are not listed.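 The calls were made as follows: active = activation of at least 60% and not above a set upper limit (about 1 call in 100 departs from these limits); inconclusive = activation of 40% to 60%, or above that upper limit; inactive = activation under 40%.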 This is one part of the list.

The compounds below were run against Probable G-protein coupled receptor 32 (Homo sapiens) (UniProt O75388) (assay: qHTS for Agonists of Human Resolvin D1 Receptor DRV1). Conditions: CHO-K1 GPR32 beta-arrestin PathHunter luminescence, 90 min; at 76.9 µM; active compounds read high; zero percent set by DMSO-only wells.
In short: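 CHO-K1 cells stably expressing ProLink-tagged GPR32 and Enzyme Activator-tagged beta-arrestin were seeded at 2,500 cells/well overnight, exposed to compounds for 90 min at 37 °C, then read by beta-Gal complementation chemiluminescence after 1 h detection reagent.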
Also: 0% is about no effect.

UniProt O75388, sequence (O75388 whole entry, looked up): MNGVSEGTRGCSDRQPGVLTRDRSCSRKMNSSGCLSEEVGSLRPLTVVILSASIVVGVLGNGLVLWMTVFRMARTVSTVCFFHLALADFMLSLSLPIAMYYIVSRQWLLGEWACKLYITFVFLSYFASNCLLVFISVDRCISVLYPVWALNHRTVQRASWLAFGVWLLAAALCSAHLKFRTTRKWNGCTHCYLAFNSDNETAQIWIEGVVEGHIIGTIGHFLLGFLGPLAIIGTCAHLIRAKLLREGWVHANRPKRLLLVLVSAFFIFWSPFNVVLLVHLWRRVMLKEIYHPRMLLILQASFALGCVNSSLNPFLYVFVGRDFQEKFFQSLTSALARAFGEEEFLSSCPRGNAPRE

activation, inactive:
O=C(COc1ccc(Br)cc1)Nc1cccc2cccnc12 -23.4%
Cc1cn2c(=O)cc(COC(=O)C(C)Oc3ccccc3)nc2s1 (stereo not given) 9.98%
COc1cccc(NC(=O)c2oc3ccccc3c2NC(=O)Cc2cccc(C)c2)c1 -23.6%
CC(CCc1ccccc1)NCC(O)c1ccc(O)c(C(N)=O)c1 (stereo not given) -17.3%
COC(=O)c1ccc(Cl)cc1NC(=O)N1CCC(CN2CCC(C)CC2)CC1 -1.03%
CCc1cccc(NC(=O)c2coc(=O)c3ccccc23)c1 8.45%
O=C(NCc1ccc(Cl)cc1)c1cc(-c2ccc(F)cc2)on1 1.74%
CCc1ccc(-n2nc(CO)c(C(=O)NCCCCc3ccccc3)n2)cc1 -5.8%
Cc1ccccc1OCC(=O)N(Cc1ccc(C(C)C)cc1)C1CCS(=O)(=O)C1 (stereo not given) -37.3%
COc1ccccc1CNC(=O)c1cc(-c2ccccc2)n[nH]1 -2.69%
O=C(CCS(=O)(=O)c1nc(-c2cccs2)cc(C(F)(F)F)n1)Nc1cccc(O)c1 -47.4%
Cc1ccc(N2C(=O)C(CC(=O)Nc3ccccc3)N(CCC3=CCCCC3)C2=O)cc1 (stereo not given) 32.5%
O=C(NCCCN1CCN(c2cccc(Cl)c2)CC1)c1nnc(Cc2ccc(F)cc2Cl)o1 20.8%
Cc1ccc2nc(NC(=O)CSc3ncc(C(=O)Nc4ccccc4)c(=O)n3C)sc2c1 -6.22%
CCc1ccc(S(=O)(=O)c2cnc(SCC(=O)Nc3ccc(OC)cc3OC)[nH]c2=O)cc1 8.89%
CCCc1cc(=O)oc2cc(C)c3c(-c4ccccc4)c(C)oc3c12 -2.18%
CC(C)NC(=O)c1sc2ncccc2c1-n1cccc1 9.42%
CCOc1ccccc1NC(=O)CN1C(=O)C(=O)c2ccccc21 -73.1%
CCOc1ccccc1N(CC)C(=O)c1cc2ccc3cccnc3c2[nH]1 -14.3%
Cn1c2ccc(F)cc2c2nnc(SCCN3CCCCC3)nc21 33.9%
CCOc1ccc(CCNC(=O)c2sc3nc4n(c(=O)c3c2C)CCCC4)cc1 2.42%
Cc1sc2c(c1C)c(=O)n(Cc1ccccc1)c(=O)n2CC(=O)Nc1cccc(Cl)c1 6.19%
O=C(O)Cn1nc(N2CCN(c3ccccc3)CC2)ccc1=O 22.6%
CC1CCC(NC(=O)CCc2cn(Cc3ccc(F)cc3)c3ccccc23)CC1 (stereo not given) -26.4%
COc1ccc(NC(=O)c2nc(S(=O)(=O)Cc3ccc(C)cc3)ncc2Cl)cc1 -26.6%
